{"source": "paper PMC4336329", "about": "(PLoS ONE, 2015)", "note": "About 14,000 (4.5%) of roughly 310,000 compounds showed an effect of 50% or more. Effects have a minus sign here. The list shows a part of the results.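 Note: peak tail current of the secondary pulse compared with the same well before compound.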", "data": [{"target": "human ether-à-go-go-related gene (hERG) potassium channel (human, UniProt Q12809)", "sequence (Q12809 whole entry, looked up)": "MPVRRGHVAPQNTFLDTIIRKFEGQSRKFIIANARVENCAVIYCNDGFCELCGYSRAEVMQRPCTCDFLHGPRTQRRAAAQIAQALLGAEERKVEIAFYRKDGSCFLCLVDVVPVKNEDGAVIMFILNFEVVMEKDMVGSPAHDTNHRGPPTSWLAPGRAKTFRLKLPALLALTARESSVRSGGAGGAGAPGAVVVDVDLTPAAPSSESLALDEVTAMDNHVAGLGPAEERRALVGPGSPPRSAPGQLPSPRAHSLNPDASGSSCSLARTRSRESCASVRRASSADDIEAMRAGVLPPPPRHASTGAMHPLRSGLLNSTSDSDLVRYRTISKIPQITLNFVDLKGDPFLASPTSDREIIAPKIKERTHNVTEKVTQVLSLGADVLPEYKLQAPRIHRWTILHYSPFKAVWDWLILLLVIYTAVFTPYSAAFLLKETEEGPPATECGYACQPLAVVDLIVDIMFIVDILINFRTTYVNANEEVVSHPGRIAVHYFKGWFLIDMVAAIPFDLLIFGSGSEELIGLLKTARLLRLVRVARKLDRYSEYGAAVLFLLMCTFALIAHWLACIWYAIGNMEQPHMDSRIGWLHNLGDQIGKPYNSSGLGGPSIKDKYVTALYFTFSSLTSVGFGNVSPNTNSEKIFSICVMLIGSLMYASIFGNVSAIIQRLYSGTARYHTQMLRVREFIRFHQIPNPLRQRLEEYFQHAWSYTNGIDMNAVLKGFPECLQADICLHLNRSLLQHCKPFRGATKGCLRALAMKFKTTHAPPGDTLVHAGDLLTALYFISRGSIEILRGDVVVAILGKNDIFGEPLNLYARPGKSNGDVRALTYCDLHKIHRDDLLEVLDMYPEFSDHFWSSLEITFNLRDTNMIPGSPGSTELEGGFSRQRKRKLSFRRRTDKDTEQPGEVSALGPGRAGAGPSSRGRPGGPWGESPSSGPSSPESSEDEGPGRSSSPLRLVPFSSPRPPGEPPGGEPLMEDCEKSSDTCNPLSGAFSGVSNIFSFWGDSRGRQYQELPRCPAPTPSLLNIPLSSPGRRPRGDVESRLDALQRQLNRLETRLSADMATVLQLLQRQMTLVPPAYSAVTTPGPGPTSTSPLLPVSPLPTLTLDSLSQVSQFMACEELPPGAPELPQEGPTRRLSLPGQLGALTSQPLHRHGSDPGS", "experiment": "primary screen, population patch clamp on CHO cells stably expressing hERG", "units": {"hERG current change (%, negative = inhibition) at 10uM": "%"}, "values": [{"smiles": "Cc1ccc(N(CC(=O)N2CCCC2)S(C)(=O)=O)cc1C", "hERG current change (%, negative = inhibition) at 10uM": 3}, {"smiles": "NC(Cc1ccc(Oc2ccc(O)cc2)cc1)C(=O)O", "note": "(stereo not drawn)", "hERG current change (%, negative = inhibition) at 10uM": 3.45}, {"smiles": "Cc1c(NC(=O)COc2cccc(Br)c2)c(=O)n(-c2ccccc2)n1C", "hERG current change (%, negative = inhibition) at 10uM": -27.9}, {"smiles": "CCOc1cc(C=O)ccc1OCC(N)=O", "hERG current change (%, negative = inhibition) at 10uM": 4.46}, {"smiles": "Cn1cnc2c(NCc3ccco3)ncnc21", "hERG current change (%, negative = inhibition) at 10uM": 4.65}, {"smiles": "CC1CCCCN1S(=O)(=O)c1ccc2c(c1)CCN2C(=O)CCC(=O)O", "note": "(stereo not drawn)", "hERG current change (%, negative = inhibition) at 10uM": 1.03}, {"smiles": "CN1CCN(C(=O)c2ccc(Cl)cc2)CC1", "hERG current change (%, negative = inhibition) at 10uM": 8.8}, {"smiles": "O=S(N1CCc2ccccc21)C12CC3CC(CC(C3)C1)C2", "note": "(stereo not drawn)", "hERG current change (%, negative = inhibition) at 10uM": -6.09}, {"smiles": "Cc1cc(NC(=O)CSc2nnc(-c3ccncc3)n2C)n(-c2ccccc2)n1", "hERG current change (%, negative = inhibition) at 10uM": -21.9}, {"smiles": "CCCOP(=O)(c1ccc(N(C)C)cc1)C(O)c1ccc(Cl)cc1Cl", "note": "(stereo not drawn)", "hERG current change (%, negative = inhibition) at 10uM": -54.9}, {"smiles": "CNS(=O)(=O)c1ccc(-c2ccc(C=C3C(=O)NC(=O)NC3=O)o2)cc1", "hERG current change (%, negative = inhibition) at 10uM": -1.86}, {"smiles": "O=C(CC1Sc2ccccc2NC1=O)OCC(=O)N1CCc2ccccc21", "note": "(stereo not drawn)", "hERG current change (%, negative = inhibition) at 10uM": -0.0853}, {"smiles": "Cc1cc2ncn(C(=O)c3c(-c4c(Cl)cccc4Cl)noc3C)c2cc1C", "hERG current change (%, negative = inhibition) at 10uM": 11.6}, {"smiles": "CC(=O)N1CCN(C(=O)CCc2nnc(CCCCc3ccccc3)o2)CC1", "hERG current change (%, negative = inhibition) at 10uM": 6.86}, {"smiles": "CCCCn1c(CCNC(=O)CCC)nc2ccccc21", "hERG current change (%, negative = inhibition) at 10uM": -7.83}, {"smiles": "NNC(=O)C1CC1c1ccc(Cl)cc1", "note": "(stereo not drawn)", "hERG current change (%, negative = inhibition) at 10uM": 9.11}, {"smiles": "CC(=O)NC(Cc1c[nH]c2ccccc12)C(=O)N1CCc2ccccc2C1", "note": "(stereo not drawn)", "hERG current change (%, negative = inhibition) at 10uM": -2.21}, {"smiles": "C[C@@H](C(=O)NC1CCN(Cc2ccccc2)CC1)N1C(=O)N2CCc3c([nH]c4ccccc34)[C@@]2(C)C1=O", "hERG current change (%, negative = inhibition) at 10uM": -77.8}, {"smiles": "Cc1ccc(C(=O)CCC(=O)O)cc1", "hERG current change (%, negative = inhibition) at 10uM": 7.54}, {"smiles": "CC1(C)CC(=O)C=C(C(=O)NC2CCCc3c2cnn3-c2cc(F)cc(F)c2)O1", "note": "(stereo not drawn)", "hERG current change (%, negative = inhibition) at 10uM": -2.03}, {"smiles": "CN(c1ccccc1C(=O)Nc1ccccc1-c1ccccc1)S(C)(=O)=O", "hERG current change (%, negative = inhibition) at 10uM": 19.8}, {"smiles": "CCOC(=O)c1c(C)oc2c1c(C=NCCC(=O)O)c(O)c1ccccc12", "hERG current change (%, negative = inhibition) at 10uM": 20.5}, {"smiles": "Nc1nnc(SCC(=O)N2CCN(c3ccccc3)CC2)s1", "hERG current change (%, negative = inhibition) at 10uM": -0.188}, {"smiles": "Cc1ccc(CNc2cnn(C34CC5CC(CC(C5)C3)C4)c(=O)c2Cl)cc1", "hERG current change (%, negative = inhibition) at 10uM": -8.85}, {"smiles": "Cc1ccc(CN2CCC(c3cc(-c4ccc(Cl)cc4)n[nH]3)CC2)cc1", "hERG current change (%, negative = inhibition) at 10uM": -78.8}, {"smiles": "CC(NC(=O)Nc1ccccc1C(F)(F)F)C1CCCO1", "note": "(stereo not drawn)", "hERG current change (%, negative = inhibition) at 10uM": 27}, {"smiles": "CN(C)S(=O)(=O)N1CCN(C(=O)N(c2ccccc2)c2ccccc2)CC1", "hERG current change (%, negative = inhibition) at 10uM": 10.3}, {"smiles": "COCCOC(=O)C1=C(C)Nc2cc(=O)[nH]c(=O)n2C1c1cccc([N+](=O)[O-])c1", "note": "(stereo not drawn)", "hERG current change (%, negative = inhibition) at 10uM": 14.4}, {"smiles": "O=C(COC(=O)COc1cccc(C(F)(F)F)c1)NC1CCCC1", "hERG current change (%, negative = inhibition) at 10uM": 6.47}, {"smiles": "COc1ccccc1CNC(=O)COc1ccccc1C(=O)c1cnn(-c2ccccc2)c1", "hERG current change (%, negative = inhibition) at 10uM": -9.74}, {"smiles": "COCCn1c(SCC(=O)OCc2ccccc2)nc2c1c(=O)[nH]c(=O)n2C", "hERG current change (%, negative = inhibition) at 10uM": -25.6}, {"smiles": "CCC(C)C(NC(=O)c1ccccc1NC(=O)c1ccccc1)C(=O)N1CCOCC1", "note": "(stereo not drawn)", "hERG current change (%, negative = inhibition) at 10uM": 7.47}, {"smiles": "O=C(CSc1nnc2scc(-c3ccc(Cl)cc3)n12)NCc1ccc2c(c1)OCO2", "hERG current change (%, negative = inhibition) at 10uM": -23.2}, {"smiles": "O=C(c1ccc(Br)cc1)C12CN3CN(CN(C3)C1)C2", "hERG current change (%, negative = inhibition) at 10uM": 49.6}, {"smiles": "CCCn1nc(C(=O)NNC(=O)c2cccc(S(=O)(=O)NC(C)C)c2)c2ccccc2c1=O", "hERG current change (%, negative = inhibition) at 10uM": 6.09}, {"smiles": "CCOC(=O)c1cccc(N2C(=O)C3C(C2=O)C2C=CC3C23CC3)c1", "note": "(stereo not drawn)", "hERG current change (%, negative = inhibition) at 10uM": -0.00282}, {"smiles": "COC(=O)c1ccccc1NC(=O)CNC(=O)c1ccco1", "hERG current change (%, negative = inhibition) at 10uM": 19.3}, {"smiles": "CC(CCc1ccccc1)NC(=O)CN1CCN(Cc2ccc(Cl)cc2)C1=O", "note": "(stereo not drawn)", "hERG current change (%, negative = inhibition) at 10uM": -53.2}, {"smiles": "O=C(c1ccc(S(=O)(=O)N2CCCC2)cc1)N1CCN(c2ccccc2F)CC1", "hERG current change (%, negative = inhibition) at 10uM": 18.8}, {"smiles": "O=C(CSc1nnc(-c2ccccc2F)o1)OCc1ccccc1", "hERG current change (%, negative = inhibition) at 10uM": 5.34}, {"smiles": "Cc1ccc(-n2nc3c(c2NC(=O)/C=C\\c2ccc4c(c2)OCO4)CSC3)cc1", "hERG current change (%, negative = inhibition) at 10uM": 4.46}, {"smiles": "O=C1CCC(C(=O)Nc2cccc(Oc3ccccc3)c2)=NN1", "hERG current change (%, negative = inhibition) at 10uM": -10.5}, {"smiles": "CC(=O)Nc1ccc(C(=O)N/N=C/c2ccccc2OCc2ccccc2)cc1", "hERG current change (%, negative = inhibition) at 10uM": 29.2}, {"smiles": "Cc1ccc(S(=O)(=O)NCCC(=O)NNC(=O)COc2ccc(Br)cc2)cc1C", "hERG current change (%, negative = inhibition) at 10uM": 5.27}, {"smiles": "COc1ccc(C(=O)/C=C/c2ccc(O)cc2)cc1", "hERG current change (%, negative = inhibition) at 10uM": -9.87}, {"smiles": "Cc1ccc(C)c(-n2cc(CNC(C)Cn3cncn3)c(-c3ccccc3)n2)c1", "note": "(stereo not drawn)", "hERG current change (%, negative = inhibition) at 10uM": -45.6}, {"smiles": "CC(C)(C)CN1CCN(Cc2nc(-c3ccc(F)cc3)cs2)CC1CCO", "note": "(stereo not drawn)", "hERG current change (%, negative = inhibition) at 10uM": -62.5}, {"smiles": "O=C(Nc1ccccc1Cl)c1ccc(=O)[nH]n1", "hERG current change (%, negative = inhibition) at 10uM": 8.03}, {"smiles": "COc1cccc(N2CCc3c(C)nc4ccc(Cl)cc4c32)c1", "hERG current change (%, negative = inhibition) at 10uM": -72.9}, {"smiles": "COc1ccc(CN2CC(C(=O)NCCCN3CCCCC3)CC2=O)cc1", "note": "(stereo not drawn)", "hERG current change (%, negative = inhibition) at 10uM": -10.7}, {"smiles": "CCOC(=O)C1=C(O)/C(=C\\c2sccc2C)N=C1C", "hERG current change (%, negative = inhibition) at 10uM": 4.53}, {"smiles": "COc1ccc(S(=O)(=O)N(C)C)cc1NC(=O)Cc1cccs1", "hERG current change (%, negative = inhibition) at 10uM": -6.99}, {"smiles": "Cc1ccc(S(=O)(=O)NNC(=O)NC23CC4CC(CC(C4)C2)C3)cc1", "hERG current change (%, negative = inhibition) at 10uM": -3.89}, {"smiles": "O=C(Nc1ccccc1)N1CCSc2ccccc21", "hERG current change (%, negative = inhibition) at 10uM": -15.9}, {"smiles": "Cc1cccc(Cc2nnc(CCC(=O)N(C)C3CCOC3)o2)c1", "note": "(stereo not drawn)", "hERG current change (%, negative = inhibition) at 10uM": 18.6}, {"smiles": "CC(C)=Cc1oc2ccc([N+](=O)[O-])cc2c1N1CC(C)OC(C)C1", "note": "(stereo not drawn)", "hERG current change (%, negative = inhibition) at 10uM": 18.7}, {"smiles": "Cc1ccccc1NC(=O)c1ccc(Nc2c([N+](=O)[O-])cc([N+](=O)[O-])c3ccccc23)cc1", "hERG current change (%, negative = inhibition) at 10uM": 9.29}]}]}
